Test results as given in PubChem BioAssay (NCATS).
Values joined by “and” are separate entries in the source; they are usually repeats but may differ in a detail not shown here. Identical values can stand only once. Inconclusive means that the source gave no clear call. Such entries were picked first, then a sample of the others. For some of these results: Potencies of inconclusive entries are doubtful fits and often do not repeat. Active and inactive are the calls of the source. Unless noted, calls come from the whole dose curve; as a rule, active = well fitted curve in the direction sought with a large enough effect; inconclusive = small, poorly fitted or top-dose-only effect, or another doubt; inactive = no such curve, though single readings can be large; an effect the other way counts as inactive or inconclusive.

Columns and labels:
[1] = target: Calcium and integrin-binding protein 1 (Homo sapiens) (UniProt Q99828); assay: Primary qHTS for Identification of Calcium Integrin Binding Protein 1 (CIB1) Competitor (AID 1508620); note: potency is the fitted concentration of half-maximal effect
Summary of the method: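 Fluorescence polarization competition: CIB1-GST (1 uM final) preincubated with compound 15 min at room temperature, then FITC-labeled alphaIIb peptide (100 nM final) added for another 15 min. Polarization read at Ex 480/Em 540.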

[2] = target: Cytochrome P450 3A4 (Homo sapiens) (UniProt P08684); assay: Cytochrome P450 family 3 subfamily A member 4 (CYP3A4) small molecule antagonists: luciferase qHTS assay (AID 1645841; active = well fitted curve in the direction sought with a large enough effect in the repeat runs; inconclusive = weak or mixed curves; inactive = no such curve, though single readings can be large; an effect the other way counts as inactive or inconclusive; note: potency is the fitted concentration of half-maximal effect; nearly all actives have a fitted effect of over 45% in size)
Summary of the method: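 P450-Glo CYP3A4 enzyme with proluciferin substrate was preincubated with DMSO-dissolved compounds for 10 min at room temperature. NADPH regeneration solution started a 1 h reaction. Detection reagent stopped it, and luminescence was read after 20 min.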

[3] = target: Cytochrome P450 2C9 (Homo sapiens) (UniProt P11712); assay: Cytochrome P450 family 2 subfamily C member 9 (CYP2C9) small molecule antagonists: luciferase biochemical (cell-free) qHTS assay (AID 1645842; active = well fitted curve in the direction sought with a large enough effect in the repeat runs; inconclusive = weak or mixed curves; inactive = no such curve, though single readings can be large; an effect the other way counts as inactive or inconclusive; note: potency is the fitted concentration of half-maximal effect; nearly all actives have a fitted effect of over 55% in size)
Summary of the method: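 P450-Glo CYP2C9 system: proluciferin substrate with enzyme in mix containing 0.4% BSA, 10 min at room temperature, then NADPH regeneration solution added and incubated 1 h at 37C. Detection reagent stopped reaction; luminescence read after 20 min as RLU.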

[4] = Primary qHTS for inhibitors of nuclear receptor binding SET domain protein 2 (NSD2) in an RCH-ACV wild type WT cells (2C) (AID 1645877); note: potency is the fitted concentration of half-maximal effect; nearly all actives have a fitted effect of over 70% in size
[5] = target: Rap guanine nucleotide exchange factor 3 (Homo sapiens) (UniProt O95398); assay: Confirmatory qHTS for antagonist of cAMP-regulated guanine nucleotide exchange factor 3 (EPAC1) (AID 1645880); details: EPAC1 Rap1B-BODIPY-GDP exchange, fluorescence; note: potency is the fitted concentration of half-maximal effect; nearly all actives have a fitted effect of over 55% in size
Summary of the method: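 Released BODIPY-GDP fluoresces less than Rap1-bound BODIPY-GDP; the signal is followed at 480/540 nm at 5-min intervals over 30 min, after 5 min at room temperature. Reactions contain 100 nM EPAC1, 250 nM RAP1B-BODIPY-GDP and 50 uM GDP; results are normalized to ATA and DMSO.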

[6] = target: Rap guanine nucleotide exchange factor 4 (Homo sapiens) (UniProt Q8WZA2); assay: Confirmatory qHTS for antagonist of cAMP-regulated guanine nucleotide exchange factor 4 (EPAC2) (AID 1645885); note: potency is the fitted concentration of half-maximal effect; nearly all actives have a fitted effect of over 25% in size
[7] = NCATS anti-infectives library activity on HEK293 viability as a counter-qHTS vs the C. elegans viability qHTS (AID 1745854)
Summary of the method: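 Cytotoxicity counter-screen to a worm viability qHTS: CellTiter-Glo luminescence read 10 min after reagent addition. Compounds (final up to 41.7 uM, a 1:5 dilution series) incubated 24 hr at 37C with 1,500 HEK293 cells per well; digitonin control.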

[8] = Counterscreen qHTS for small molecule stabilizers of the endoplasmic reticulum resident proteome: GLuc-NoTag assay (AID 1508627); details: Gaussia luciferase NoTag secretion counterscreen, luminescence; thapsigargin 100 nM for final 4 h; note: potency is the fitted concentration of half-maximal effect
Summary of the method: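 Secreted GLuc lacking the SERCaMP modification is measured in SH-SY5Y cells exposed to compound for 19 h and then to thapsigargin (100 nM, 4 h) to deplete ER calcium; hits retested at 11 concentrations, up to 76.6 uM.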

[9] = Confirmatory qHTS for small molecule stabilizers of the endoplasmic reticulum resident proteome: Secreted ER Calcium Modulated Protein (SERCaMP) assay (AID 1508628); note: potency is the fitted concentration of half-maximal effect; nearly all actives have a fitted effect of over 40% in size
Summary of the method: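 Reporter secretion upon ER calcium depletion (100 nM thapsigargin, 4 h, 37C) is measured as medium luminescence with coelenterazine, after 16 h compound pretreatment of SH-SY5Y-GLuc-SERCaMP cells; primary at three concentrations up to 38.3 uM, follow-up at 11 (up to 76.6 uM).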

[10] = Primary qHTS for small molecule stabilizers of the endoplasmic reticulum resident proteome: Secreted ER Calcium Modulated Protein (SERCaMP) assay (AID 1508630); details: SH-SY5Y GLuc-SERCaMP (Gaussia luciferase released on ER calcium loss) secretion, thapsigargin, luminescence; series mostly up to 38.4 µM; note: potency is the fitted concentration of half-maximal effect
Summary of the method: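 The SH-SY5Y reporter protocol was run at 3 concentrations up to 38.3 uM (primary) or 11 concentrations (follow-up): 16 h compound, 100 nM thapsigargin for 4 h, then extracellular luciferase luminescence.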

[11] = A High-Content qHTS Against Drug Library for the Identification of Small Molecules that Inhibit DYT1 Early Onset Primary Dystonia-Associated Cell Pathology (AID 1645839; calls by dose curve; note: potency is the fitted concentration of half-maximal effect)
Summary of the method: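 Induced EGFP-delE TorsinA cells are imaged after 48 h of compound treatment. Punctate fusion-protein distribution gives the %pathology value, while nuclei counts flag toxicity. Wild-type EGFP-hTOR1A cells define the normal pattern.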

[12] = Primary qHTS for inhibitors of nuclear receptor binding SET domain protein 2 (NSD2) in an isogenic RCH-ACV NSD2 p.E1099K mutant (9B) (AID 1645876); note: potency is the fitted concentration of half-maximal effect; nearly all actives have a fitted effect of over 70% in size
Tags give direction and shape of the fitted curve.

Chain of UniProt Q99828 (Q99828 whole entry, looked up): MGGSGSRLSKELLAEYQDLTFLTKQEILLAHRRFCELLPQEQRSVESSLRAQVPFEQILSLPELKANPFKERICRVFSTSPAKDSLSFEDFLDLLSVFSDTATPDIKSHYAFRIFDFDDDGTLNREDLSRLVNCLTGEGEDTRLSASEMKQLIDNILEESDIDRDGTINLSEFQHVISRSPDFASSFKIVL
Chain of UniProt O95398 (O95398 whole entry, looked up): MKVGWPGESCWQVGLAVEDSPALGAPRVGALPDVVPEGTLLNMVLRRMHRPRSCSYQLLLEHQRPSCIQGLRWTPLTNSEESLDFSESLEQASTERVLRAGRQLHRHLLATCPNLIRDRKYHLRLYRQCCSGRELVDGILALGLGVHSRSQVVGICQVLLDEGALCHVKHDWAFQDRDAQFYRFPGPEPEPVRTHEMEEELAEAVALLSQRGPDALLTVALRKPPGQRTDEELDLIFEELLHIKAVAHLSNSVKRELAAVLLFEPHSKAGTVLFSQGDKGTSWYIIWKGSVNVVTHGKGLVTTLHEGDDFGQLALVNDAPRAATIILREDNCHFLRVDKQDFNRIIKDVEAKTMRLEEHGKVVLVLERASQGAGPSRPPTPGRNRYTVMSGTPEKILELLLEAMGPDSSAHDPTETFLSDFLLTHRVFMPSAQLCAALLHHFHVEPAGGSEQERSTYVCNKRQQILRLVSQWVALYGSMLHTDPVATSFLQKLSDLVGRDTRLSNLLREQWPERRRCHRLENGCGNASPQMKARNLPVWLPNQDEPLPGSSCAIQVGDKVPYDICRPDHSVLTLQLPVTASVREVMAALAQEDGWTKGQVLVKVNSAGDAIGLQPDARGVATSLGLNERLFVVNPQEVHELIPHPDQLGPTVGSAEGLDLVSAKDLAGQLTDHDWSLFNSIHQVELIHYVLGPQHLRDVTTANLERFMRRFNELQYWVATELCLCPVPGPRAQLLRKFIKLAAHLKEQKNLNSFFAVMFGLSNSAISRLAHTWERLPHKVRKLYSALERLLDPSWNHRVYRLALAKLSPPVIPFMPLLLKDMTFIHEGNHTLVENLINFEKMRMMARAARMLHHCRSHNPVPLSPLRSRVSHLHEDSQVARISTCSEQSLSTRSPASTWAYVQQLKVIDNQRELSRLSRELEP
Chain of UniProt Q8WZA2 (Q8WZA2 whole entry, looked up): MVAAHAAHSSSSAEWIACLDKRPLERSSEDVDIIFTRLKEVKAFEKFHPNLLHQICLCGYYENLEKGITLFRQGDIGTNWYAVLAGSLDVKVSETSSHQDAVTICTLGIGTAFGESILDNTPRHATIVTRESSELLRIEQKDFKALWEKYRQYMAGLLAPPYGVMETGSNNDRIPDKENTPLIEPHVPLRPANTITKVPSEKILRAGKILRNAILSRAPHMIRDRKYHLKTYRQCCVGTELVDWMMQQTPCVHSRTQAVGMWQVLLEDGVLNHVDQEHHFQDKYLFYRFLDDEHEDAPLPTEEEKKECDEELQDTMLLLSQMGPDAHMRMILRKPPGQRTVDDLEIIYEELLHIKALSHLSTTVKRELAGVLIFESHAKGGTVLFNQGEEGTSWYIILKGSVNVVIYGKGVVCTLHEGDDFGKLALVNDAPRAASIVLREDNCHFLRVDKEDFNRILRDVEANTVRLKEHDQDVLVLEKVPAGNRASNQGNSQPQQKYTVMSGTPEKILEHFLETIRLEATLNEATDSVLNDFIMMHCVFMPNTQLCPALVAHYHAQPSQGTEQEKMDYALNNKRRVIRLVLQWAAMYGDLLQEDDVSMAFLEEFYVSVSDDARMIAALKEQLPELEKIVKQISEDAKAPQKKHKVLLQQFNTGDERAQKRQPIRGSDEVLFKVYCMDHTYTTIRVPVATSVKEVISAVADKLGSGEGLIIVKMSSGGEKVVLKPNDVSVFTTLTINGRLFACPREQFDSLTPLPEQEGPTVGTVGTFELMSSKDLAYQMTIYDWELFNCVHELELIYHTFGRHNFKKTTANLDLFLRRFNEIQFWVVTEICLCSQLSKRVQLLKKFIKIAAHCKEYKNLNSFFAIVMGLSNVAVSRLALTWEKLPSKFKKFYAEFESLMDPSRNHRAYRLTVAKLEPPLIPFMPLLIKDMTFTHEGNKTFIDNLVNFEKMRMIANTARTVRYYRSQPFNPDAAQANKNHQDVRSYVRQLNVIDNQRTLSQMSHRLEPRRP
Chain of UniProt P11712 (P11712 whole entry, looked up): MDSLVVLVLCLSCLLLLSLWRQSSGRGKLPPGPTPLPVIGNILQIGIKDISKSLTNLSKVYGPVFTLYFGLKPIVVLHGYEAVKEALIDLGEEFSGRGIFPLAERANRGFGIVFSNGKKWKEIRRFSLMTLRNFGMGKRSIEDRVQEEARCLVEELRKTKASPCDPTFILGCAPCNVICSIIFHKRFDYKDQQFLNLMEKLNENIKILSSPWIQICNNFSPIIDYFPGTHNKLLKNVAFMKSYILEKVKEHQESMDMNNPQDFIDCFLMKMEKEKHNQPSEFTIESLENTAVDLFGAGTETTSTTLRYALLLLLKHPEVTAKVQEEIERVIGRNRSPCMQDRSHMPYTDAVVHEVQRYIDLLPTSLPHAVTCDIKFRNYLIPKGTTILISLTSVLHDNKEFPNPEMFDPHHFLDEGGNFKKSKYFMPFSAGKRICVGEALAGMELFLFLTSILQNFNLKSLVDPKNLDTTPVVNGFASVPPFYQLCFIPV
Chain of UniProt P08684 (P08684 whole entry, looked up): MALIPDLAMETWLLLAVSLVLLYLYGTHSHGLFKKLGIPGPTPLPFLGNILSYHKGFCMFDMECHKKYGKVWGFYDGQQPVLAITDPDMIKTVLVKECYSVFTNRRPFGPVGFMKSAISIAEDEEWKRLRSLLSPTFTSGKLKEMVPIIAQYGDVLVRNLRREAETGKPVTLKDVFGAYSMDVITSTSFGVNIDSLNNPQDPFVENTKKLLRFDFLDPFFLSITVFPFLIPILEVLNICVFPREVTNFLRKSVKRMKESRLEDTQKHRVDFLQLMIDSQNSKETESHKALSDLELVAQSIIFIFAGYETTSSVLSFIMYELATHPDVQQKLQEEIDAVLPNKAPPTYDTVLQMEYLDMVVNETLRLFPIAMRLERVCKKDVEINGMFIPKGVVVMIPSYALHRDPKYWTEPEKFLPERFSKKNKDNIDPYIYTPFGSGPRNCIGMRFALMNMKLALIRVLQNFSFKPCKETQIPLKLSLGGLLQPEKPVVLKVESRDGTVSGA

For `COc1cc([C@H]2Oc3cc([C@H]4Oc5cc(O)cc(O)c5C(=O)[C@H]4O)ccc3O[C@H]2CO)ccc1O`, the Potency [1] was inconclusive: 21.5 µM [inhibitor, partial curve].
With `Cc1coc2c1C(=O)C(=O)c1c-2ccc2c1CCCC2(C)C` the Potency [1] was inconclusive: 79.4 µM [inhibitor, partial curve], the Potency [2] was inconclusive: 8.49 µM [falling, partial curve] and the Potency [3] was inconclusive: 7.56 µM [inhibitor, single point]. The Potency [4] was inconclusive: 23 µM [inhibitor, single point], the Potency [5] was active: 53.6 µM and inconclusive: 44.4 µM [inhibitor, partial curve] and the Potency [6] was inconclusive: 49.4 µM [inhibitor, partial curve].
In the case of `CCOC(=O)C=C[C@H](C[C@@H]1CCNC1=O)NC(=O)[C@@H](CC(=O)[C@@H](NC(=O)c1cc(C)on1)C(C)C)Cc1ccc(F)cc1`, the Potency [1] is reported as “inactive”, the Potency [4] is reported as inconclusive: 16.6 µM [inhibitor, partial curve, poor fit] and the Potency [7] is reported as “inactive”.
For `CN1CCC(=C2c3ccccc3C=Cc3ccccc32)CC1`, the Potency [8] was inconclusive: 39.8 µM [inhibitor, partial curve], the Potency [9] was inconclusive: 17.8 µM [inhibitor, full curve, poor fit] and the Potency [10] was inconclusive: 3.16 µM [inhibitor, full curve, poor fit] and inconclusive: 10 µM [inhibitor, partial curve, poor fit] and inconclusive: 668 nM [inhibitor, full curve]. The Potency [11] was inconclusive: 11.2 µM [inhibitor, partial curve, poor fit], the Potency [12] was inconclusive: 29.9 µM [inhibitor, single point] and the Potency [4] was inconclusive: 29.9 µM [inhibitor, single point].
